Results on one protein are retold here after PMC11189308, “Vimentin filaments integrate low-complexity domains in a complex helical structure” (Nature Structural & Molecular Biology, 2024).

The data set concerns the molecule itself. Kind of data set: cryo-EM structure; single-particle reconstruction of tail-less filaments assembled by dialysis against 10 mM Tris HCl pH 7.5 with 100 mM KCl; helical symmetry imposed after refinement; 8.4 Å map.

B1: human vimentin ΔT ([…]) (domain or fragment)
chain: not shown
notes: vimentin, human, […] (lacks the tail domain); Cloned in pEt24d(+); also called VIF-ΔT; VIFs-ΔT
As for B1, the binding result is recorded as “binds”.
